Test results reported in PubChem BioAssay AID2101 (National Center for Advancing Translational Sciences (NCATS), 2009).
Among all 330,000 compounds or so, about 300 (0.091%) were called active. Roughly 4% stayed inconclusive and do not appear here. Calls come from the whole dose curve; as a rule, active = well fitted inhibition curve with a large enough effect; inconclusive = small, poorly fitted or top-dose-only effect, or effect the other way, or another doubt; inactive = no such curve, though single readings can be large or run the other way. The entries are a selection whose mix differs from that of the whole data set.

target: Lysosomal acid glucosylceramidase (Homo sapiens) (UniProt P04062); assay: qHTS Assay for Inhibitors and Activators of N370S glucocerebrosidase as a Potential Chaperone Treatment of Gaucher Disease; conditions: N370S GC spleen homogenate, 4MU-glucoside fluorescence; series mostly up to 59.4 µM; activity change, negative = inhibition: at the top concentration;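 for activity change, negative = inhibition: 0% = full enzyme activity and -100% = no enzyme basal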
Potency is the fitted concentration of half-maximal effect.

Compound	activity change, negative = inhibition	Potency
O=C1C2C(c3ccccc3)=NN(c3ccccc3)C2C(=O)N1c1ccccc1 (stereo unspecified)	inactive: 21.5%	–
Cc1c(O)cccc1C(=O)N[C@@H](CSc1ccccc1)[C@H](O)CN1C[C@H]2CCCC[C@H]2C[C@H]1C(=O)NC(C)(C)C	–	inactive
Cc1nc(N=Nc2ccc(S(=O)(=O)O)cc2S(=O)(=O)O)c(COP(=O)(O)O)c(C=O)c1O	–	inactive
Oc1ccc(Nc2nc3ccccc3nc2Nc2ccc(O)cc2)cc1	–	active: 4.47 µM
O=C(C1=C[C@H](c2ccc(Br)cc2)C[C@H](OCCCCO)O1)N1CCN(Cc2ccc3c(c2)OCO3)CC1	inactive: -15.4%	–
NC(N)=NCCC[C@H](NC(=O)CC1(CC(=O)N2CCN(C3c4ccccc4NC(=O)c4ccccc43)CC2)CCCC1)C(=O)NCCn1c(=O)n(-c2ccccc2)n(-c2ccccc2)c1=O (stereo partly specified)	–	active: 17.8 µM
COCOc1cc(OC)ccc1C(=O)/C=C/c1ccc2c(c1)OCO2	inactive: -8.19%	–
Cc1ccc(C2=N/C(=C/c3cccs3)C(=O)N2Nc2ccccc2)cc1	inactive: 29.6%	–
NS(=O)(=O)c1cc2c(cc1Cl)N[C@@H]([C@@H]1C[C@@H]3C=C[C@H]1C3)NS2(=O)=O	inactive: -12.5%	–
CCCCC[C@H](O)/C=C/[C@@H]1[C@@H](C/C=C\CCCC(=O)O)[C@H](O)C[C@H]1O	–	inactive
CCO[C@@H]1OC(C(=O)N2CCN(Cc3ccc4c(c3)OCO4)CC2)=C[C@H](c2ccc(C(F)(F)F)cc2)[C@H]1CCCO	inactive: -22.3%	–
CC(CN1c2ccccc2Sc2ccccc21)N(C)C (stereo unspecified)	–	inactive
O[C@@H](c1cc(C(F)(F)F)nc2c(C(F)(F)F)cccc12)[C@H]1CCCCN1	inactive: -21.9%	–
O[Si](CCCN1CCCCC1)(c1ccc(F)cc1)C1CCCCC1 (stereo unspecified)	inactive: -7.34%	–
c1ccc(N2CCN(CCCOc3ccc4c(c3)OCO4)CC2)cc1	inactive: 5.92%	–
N[C@H](Cc1cc(I)c(Oc2ccc(O)c(I)c2)c(I)c1)C(=O)O	inactive: -0.141% [at 21.6 µM]	–
C=CCn1c(SCC(=O)NC2CCCC2)nc2scc(-c3ccco3)c2c1=O	–	active: 12.6 µM
CCC1CN(S(=O)(=O)c2ccc3c(c2)NC(=O)CC(=O)N3)c2cc(Cl)ccc2O1 (stereo unspecified)	–	active: 1.58 µM
C[C@@H](NC(=O)c1cc2c([nH]c3ccccc32)c(-c2ccccc2)n1)C(=O)O	inactive: 4.41%	–
COc1ccc(-c2coc3cc(O)cc(O)c3c2=O)cc1	–	inactive
CC(C)(Cc1ccc(O)cc1)NC(=O)CC(=O)N=Nc1c(O)[nH]c2cc(Br)ccc12	–	active: 11.2 µM
CC(C)(c1cc(Br)c(O)c(Br)c1)c1cc(Br)c(O)c(Br)c1	inactive: 1.02%	–

Compound	activity change, negative = inhibition	Potency
COCOc1cc(OC)ccc1C(=O)/C=C\c1ccc2c(c1)OCO2	inactive: 2.68% [at 12.8 µM]	–
CCc1cc(Cl)c(OC)c(C(=O)NC[C@@H]2CCCN2CC)c1O	inactive: -19% [at 21.6 µM]	–
CC12CCC=CC1C(c1ccc(C(F)(F)F)cc1)N(Cc1ccccc1)C2=O (stereo unspecified)	inactive: -2.41%	–
Oc1cccc(NC(=S)N=Nc2c(O)[nH]c3ccc(Br)cc23)c1	–	active: 7.94 µM
COc1cc(CNC(=O)CCCCCCC(C)C)ccc1O	–	inactive
COc1ccc(C2Sc3ccccc3N(CCN(C)C)C(=O)C2OC(C)=O)cc1 (stereo unspecified)	inactive: -8.14%	–
Cc1cccc(-c2nc(Nc3ccc(N4CCOCC4)cc3)c3ccccc3n2)c1	–	active: 2.82 µM
CC(=O)Oc1ccc(C(c2ccc(OC(C)=O)cc2)c2ccccn2)cc1	–	inactive
CCO[C@@H]1OC(C(=O)N2CCN(Cc3ccc4c(c3)OCO4)CC2)=C[C@H](c2ccc(Br)cc2)[C@H]1CCCO	inactive: -18.5%	–
CC(=O)Nc1ccc(OC[C@@H](O)CNC(C)C)cc1	inactive: -1.55%	–
CN1CCN(C(=O)C2=C[C@H](c3csc4ccccc34)C[C@H](OCc3ccc(CO)cc3)O2)CC1	inactive: -26.6%	–
COC(=O)[C@@H]1C[C@@H]2CC[C@@H](O)C[C@@H]2N1Cc1ccccc1OS(=O)(=O)c1ccc(C)cc1	–	inactive
OCCN1CCN(CCC=C2c3ccccc3Sc3ccc(Cl)cc32)CC1	inactive: 4.99% [at 21.6 µM]	–
CN1CCN(Cc2nc3ccccc3c(=O)n2Cc2nc(-c3ccc4ccccc4c3)cs2)CC1	–	active: 11.2 µM
COc1ccc(Nc2nc(-c3cccs3)nc3ccccc23)cc1	–	active: 1.12 µM
NC1=NC[C@H](Cc2ccc(O)cc2)N1CCc1cc(C(F)(F)F)cc(C(F)(F)F)c1	inactive: -19.9%	–
COc1ccc(C(CC(=O)N2CCCCC2)c2c(OC)cc(OC)c3ccc(=O)oc23)cc1 (stereo unspecified)	inactive: 3.24%	–
O=C(Nc1ccccc1)C1=C[C@H](c2ccc(Br)cc2)C[C@H](OCc2ccc(CO)cc2)O1	inactive: 18.4%	–
O=C1C(Nc2ccccc2)=CC(=O)c2ncccc21	inactive: -13.9%	–
CC1=NN(c2ccccc2)C(=O)C1/C=C1/NC(=S)NC1=O (stereo unspecified)	inactive: 2.59%	–
O=C1N=C(O)CN1/N=C/c1ccc(-c2ccc([N+](=O)[O-])cc2)o1	inactive: -2.01%	–
COc1cc2c(cc1O)CCC1C2CC[C@]2(C)[C@@H](O)CC[C@@H]12 (stereo partly specified)	inactive: 11.2%	–

Compound	activity change, negative = inhibition	Potency
Cc1ccc(CNc2nc(-c3cccs3)nc3ccccc23)cc1	–	active: 14.1 µM
COC(=O)[C@H]1[C@H]2C[C@H]3c4[nH]c5ccccc5c4CCN3C[C@H]2CC[C@@H]1O	–	inactive
O[C@@H]1[C@@H]2c3cc4c(cc3CN3CCC(=C[C@@H]1O)[C@H]23)OCO4	inactive: 8.86% [at 21.6 µM]	–
Cc1ccc(C(=O)Cn2c3c(sc2=N)CCCC3)cc1	inactive: 17.8%	–
Nc1nc(NCC2CCC(CNS(=O)(=O)c3cccc4ccccc34)CC2)nc2ccccc12 (stereo unspecified)	inactive: -14%	–
CCN(CC)CCOCCOC(=O)C1(c2ccccc2)CCCC1	–	inactive
CCN1C(=O)N(S(=O)(=O)c2ccc(C)cc2)[C@@H](c2ccccc2)C(C(=O)OC)=C1C	inactive: 4.19% [at 12.8 µM]	–
Cc1ccc(OCC(O)C(C)NC(C)C)c2c1CCC2 (stereo unspecified)	–	inactive
CC(C(O)c1ccc(O)cc1)N1CCC(Cc2ccccc2)CC1 (stereo unspecified)	–	inactive
CCCCC(CC)CN=C(N)NC(N)=NCCCCCCN=C(N)NC(N)=NCC(CC)CCCC (stereo unspecified)	inactive: -25.8%	–
S=C(NCc1ccncc1)Nc1ccc(Br)cc1	–	active: 17.8 µM
CCOC(=O)C1=C(N)Oc2ccc(Br)cc2C1C(C#N)C(=O)OCC (stereo unspecified)	–	inactive
O=c1cc(-c2ccccc2Cl)oc2c(Br)ccc(O)c12	inactive: 15.8%	–
CCOC(=O)c1c(CSc2ccccc2)n(C)c2cc(Br)c(OCC(O)CNC(CO)(CO)CO)cc12 (stereo unspecified)	–	active: 14.1 µM
CCC1CC=CC2C1C(=O)N(Cc1ccccc1)C2c1ccc(OC)c(Cl)c1 (stereo unspecified)	inactive: 2.42%	–
COc1cc([C@H]2Oc3cc([C@H]4Oc5cc(O)cc(O)c5C(=O)[C@@H]4O)ccc3O[C@@H]2CO)ccc1O	inactive: -24%	–
COC(=O)[C@H]1[C@@H]2C[C@@H]3c4[nH]c5ccccc5c4CCN3C[C@H]2CC[C@H]1O	inactive: -3.84%	–
C=C1O[C@@](CO)(n2cnc3c(N)ncnc32)[C@H](O)[C@@H]1O	inactive: 0.407%	–
CCCC1OC2CC3C4CCC5=CC(=O)C=CC5(C)C4C(O)CC3(C)C2(C(=O)CO)O1 (stereo unspecified)	inactive: -2.49%	–
C=C1C(c2ccc(C)cc2)=CCc2cc(C)cc(C)c21	inactive: -10.4%	–
NC(N)=N/N=C/c1ccc(OCc2ccccc2Cl)cc1	–	active: 22.4 µM
N#Cc1ccc(C23CC4(C2)[C@H](CN(P(=O)(c2ccccc2)c2ccccc2)[C@@H]4c2ccccc2)C3c2ccc(Cl)nc2)cc1 (stereo partly specified)	inactive: 13.9%	–

Compound	activity change, negative = inhibition	Potency
CN1CCN(C(=O)/C(=C/c2cccs2)NC(=O)c2cccs2)CC1	inactive: -1.42%	–
CCOc1ccc(C(C)=O)cc1COc1ccc(-c2nnco2)cc1	–	active: 11.2 µM
c1ccc(-c2nc(NC3CCCC3)c3ccccc3n2)cc1	–	active: 15.8 µM
NC[C@@H]1O[C@H](C23CC4CC(CC(C4)C2)C3)Cc2c1ccc(O)c2O	–	inactive
OCCNc1nc(Nc2ccccc2)nc(Nc2ccccc2)n1	–	active: 11.2 µM
C/C=C\C[C@@H](C)[C@@H](O)[C@H]1C(=O)N[C@@H](CC)C(=O)N(C)CC(=O)N(C)[C@@H](CC(C)C)C(=O)N[C@@H](C(C)C)C(=O)N(C)[C@@H](CC(C)C)C(=O)N[C@@H](C)C(=O)N[C@H](C)C(=O)N(C)[C@@H](CC(C)C)C(=O)N(C)[C@@H](CC(C)C)C(=O)N(C)[C@@H](C(C)C)C(=O)N1C	inactive: -18.1%	–
Cc1cc2nc3c(=O)[nH]c(=O)nc-3n(C[C@H](O)[C@H](O)[C@H](O)CO)c2cc1C	inactive: 2.13%	–
Cc1ccccc1Nc1nc(NCc2ccco2)c2ccccc2n1	–	active: 20 µM
Oc1cc2c(cc1O)C1c3ccc(O)c(O)c3OCC1(O)C2 (stereo unspecified)	inactive: 5.27%	–
C=CCCN(C1CCCC1)S(=O)(=O)c1ccccc1Br	inactive: -7.75%	–
C#CCOCCOCCOCCNc1nc(N2CCN(C(=O)CCCCCCCCCCNC(=O)[C@@H](CCSC)n3cc(CCO)nn3)CC2)nc(N2CCN(C(=O)CCCCCCCCCCNC(=O)[C@H](CCCN=C(N)N)n3cc(C[C@@H](C)CC)nn3)CC2)n1	–	active: 7.94 µM
Cc1cc(C)c2nc(N(CCCN(C)C)C(=O)c3ccc(S(=O)(=O)N4CCCCCC4)cc3)sc2c1	–	active: 15.8 µM
Cn1cc(CN(CCCN2CCOCC2)C(=S)Nc2cccc(Cl)c2)c2ccccc21	–	active: 10 µM
C#CCNC(=O)C1=C[C@@H](C(C)(C)C)C[C@@H](OCc2ccc(CO)cc2)O1	inactive: 28.5%	–
CN1CCN(CCc2ccc(Cl)c(Cl)c2)CC1	inactive: -16%	–
O=C1NC[C@H](Cc2ccc(O)cc2)N(CC2CCCCC2)C1=O	inactive: -0.899%	–
N[C@@H](Cc1cc(I)c(Oc2ccc(O)c(I)c2)c(I)c1)C(=O)O	–	inactive
COc1cc(/C=N/N=C(N)N)ccc1OCc1ccc(Cl)cc1	–	active: 7.94 µM
CCCCCCNC(=O)Nc1ccc(S(=O)(=O)Nc2ccc(CCNC[C@H](O)COc3ccc(O)cc3)cc2)cc1	–	active: 7.94 µM
C[C@@H]1C(=O)O[C@H]2[C@H](O)[C@@]34[C@H]5C[C@@H](C(C)(C)C)[C@]36[C@@H](OC(=O)[C@@H]6O)O[C@@]4(C(=O)O5)[C@@]12O	inactive: 0.987%	–
